The list shows a part of the results. Single values are uncertain, as repeats are few or missing.
How the values were obtained:
Test in all cases: cell count relative to DMSO control; melanoma cells; higher = more viable cells
Conditions in all cases: library dose: low library concentration; 72 h
MZ2-MEL = tested on: MZ2-MEL
MeWo = tested on: MeWo
RPMI7951 = tested on: RPMI7951
RVH-421 = tested on: RVH-421
SkMel28 = tested on: SkMel28
SkMel2 = tested on: SkMel2
SkMel30 = tested on: SkMel30
UACC62 = tested on: UACC62
SkMel5 = tested on: SkMel5
UACC257 = tested on: UACC257
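Further: cell number obtained by counting DAPI-stained nuclei in high-throughput microscope images with image analysis software, screen run in 1,536-well plates.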

Row | SMILES | cell count (MZ2-MEL) [%] | cell count (MeWo) [%] | cell count (RPMI7951) [%] | cell count (RVH-421) [%] | cell count (SkMel28) [%] | cell count (SkMel2) [%] | cell count (SkMel30) [%] | cell count (UACC62) [%] | cell count (SkMel5) [%] | cell count (UACC257) [%]
1 | Cc1cn(-c2cc(NC(=O)c3ccc(C)c(Nc4nccc(-c5cccnc5)n4)c3)cc(C(F)(F)F)c2)cn1 [nilotinib] + CC(=O)O[C@@]12CO[C@@H]1C[C@H](O)[C@@]1(C)C(=O)[C@H](O)C3=C(C)[C@@H](OC(=O)[C@H](O)[C@@H](NC(=O)OC(C)(C)C)c4ccccc4)C[C@@](O)([C@@H](OC(=O)c4ccccc4)[C@H]21)C3(C)C [Docetaxel] (first compound 0.2 µM, partner dose 0.0001 µM) | 71.3 | 52.6 | 39 | 80.9 | 65.4 | 53 | 36.1 | 63.1 |  | 
2 | Cc1cc(Nc2cc(N3CCN(C)CC3)nc(/C=C/c3ccccc3)n2)n[nH]1 + O=C1NC(=O)/C(=C/c2ccc(-c3ccc(F)cc3O)o2)S1 [AS252424] (first compound 0.04 µM, partner dose 1 µM) | 100 | 87.1 | 78.7 | 92.6 | 90.4 | 92.4 | 87.3 | 98.1 | 103 | 69.1
3 | CC(C)C[C@H](NC(=O)[C@H](Cc1ccccc1)NC(=O)c1cnccn1)B(O)O [Bortezomib] + Oc1cc(-c2nc(-c3ccccc3)[nH]c2-c2ccncc2)ccc1Cl [L779450] (first compound 0.001 µM, partner dose 0.2 µM) | 77.2 | 89.5 | 85.8 | 60.4 | 68.6 | 90.8 | 90.4 | 55.1 | 124 | 74.7
4 | Cn1c(=O)n(-c2ccc(C(C)(C)C#N)cc2)c2c3cc(-c4cnc5ccccc5c4)ccc3ncc21 + O=C1NC(=O)/C(=C/c2ccc(-c3ccc(F)cc3O)o2)S1 [AS252424] (first compound 0.004 µM, partner dose 1 µM) | 110 | 96.4 | 95.4 | 86.7 | 83 | 87 | 94.5 | 87.9 | 95.5 | 83.5
5 | Cc1cc(Nc2cc(N3CCN(C)CC3)nc(/C=C/c3ccccc3)n2)n[nH]1 + Cn1cncc1[C@@](N)(c1ccc(Cl)cc1)c1ccc2c(c1)c(-c1cccc(Cl)c1)cc(=O)n2C [tipifarnib] (first compound 0.04 µM, partner dose 0.01 µM) | 98.5 | 89.4 | 97.9 | 108 | 83.1 | 84.7 | 67 | 59.7 | 105 | 69.1
6 | Cn1c(=O)n(-c2ccc(C(C)(C)C#N)cc2)c2c3cc(-c4cnc5ccccc5c4)ccc3ncc21 + COC(=O)c1sccc1S(=O)(=O)Nc1ccc(Nc2ccccc2)cc1OC [GSK0660] (first compound 0.004 µM, partner dose 1 µM) | 93.2 | 76.9 | 98.4 | 94.1 | 85.6 | 92.5 | 81.8 | 88.7 | 99 | 115
7 | COc1ccc(C2=N[C@@H](c3ccc(Cl)cc3)[C@@H](c3ccc(Cl)cc3)N2C(=O)N2CCNC(=O)C2)c(OC(C)C)c1 [Nutlin-3] + COC(=O)c1sccc1S(=O)(=O)Nc1ccc(Nc2ccccc2)cc1OC [GSK0660] (first compound 0.1 µM, partner dose 1 µM) | 98.4 | 111 | 119 | 69.8 | 92.8 | 97 | 111 | 74.6 | 95.1 | 109
8 | Cn1c(=O)n(-c2ccc(C(C)(C)C#N)cc2)c2c3cc(-c4cnc5ccccc5c4)ccc3ncc21 + CCN(CC)CCCCNc1ncc2cc(-c3cc(OC)cc(OC)c3)c(NC(=O)NC(C)(C)C)nc2n1 [PD173074] (first compound 0.004 µM, partner dose 0.1 µM) | 92.7 | 83.1 | 98.4 | 95.4 | 82.6 | 88.5 | 75.7 | 70.8 | 111 | 117
9 | Cc1cc(Nc2cc(N3CCN(C)CC3)nc(/C=C/c3ccccc3)n2)n[nH]1 + Cn1nnc2c(C(N)=O)ncn2c1=O [temozolomide] (first compound 0.04 µM, partner dose 2 µM) | 97.1 | 85.7 | 98.5 | 87.7 | 73.8 | 102 | 88.3 | 85 |  | 
10 | Cc1cc(Nc2cc(N3CCN(C)CC3)nc(/C=C/c3ccccc3)n2)n[nH]1 + NC1(c2ccc(-c3nc4ccn5c(=O)[nH]nc5c4cc3-c3ccccc3)cc2)CCC1 [MK2206] (first compound 0.04 µM, partner dose 0.4 µM) | 95 | 79.3 | 86.9 | 68 | 75.7 | 73.1 | 81.1 | 83.2 |  | 
11 | CC(C)C[C@H](NC(=O)[C@H](Cc1ccccc1)NC(=O)c1cnccn1)B(O)O [Bortezomib] + CS(=O)(=O)CCNCc1ccc(-c2ccc3ncnc(Nc4ccc(OCc5cccc(F)c5)c(Cl)c4)c3c2)o1 [lapatinib] (first compound 0.001 µM, partner dose 0.8 µM) | 67 | 82.1 | 68.9 | 56.4 | 114 | 108 | 68.3 | 94.5 |  | 

— the supplement of paper PMC4604168 (melanoma cell lines)
